Read counts are not given, so values of variants with three or more changes are uncertain.
B1: LINE1-full (parent)
chain: UACGUAGGUGGUUUUCCCCUGAUAGUGCUAAGGGGGCCUGGAAGUUUGGACUGGGCAGAGCUCAACACAGCGUGGCAAAGUGGCUGUGGCUAGACUGCCUCUCUGGAUUCCUCGUCACUCAGCAGGGCAUCUCUGAGAGAAAUGCC

Variants of: B1
Test: self-cleavage, relative activity (ratio to wild type); higher = more cleavage; in vitro, sequencing; the parent is a self-cleaving ribozyme

Variant	self-cleavage
A77G U109C A140U	1.31
A78G C99A A138U	1.07
A79G U81A C110A	1.76
A78U U85C U119A	0.27
A77U A78G A141G	1.17
A79G A138G A140U	0.84
A79G U81A A129U	1.77
A78G U100C A142G	0.86
C76U U85C U102C A138G	0.1
U73C U81A U108C G127U U132C A140G	1.31
A78C A129G U132C A142G	1.9
A79G A92G U143C	0
A77G A117U A140G	1.07
A77U A94G A138U	0.22
U73C A117U A142G	2.03
U73C U85A A124G	0
A77G U132C A141G	1.11
A77G U130C A142G	2.18
A78G C99U U130C	0.63
U73C G86A A140G	0.1
A77U U85C U87A A129G	0.12
U73C G83A A136G	2.14
A78G U119C A138G	1.09
U73C U96C C103U A141G	0.19

Variant	self-cleavage
A77G U81C C99U	1.13
C76A U109C U134C	1.92
C76U A107C U134C	2.94
U73C U112C A129U	1.84
A78U U91C U134C A141G	1.2
G74A U81G G83A	0.91
U73C G89A U108C U115C	0
A78U U108C A121G	1.62
A78G G86A A107G G126U	0.02
U73C C76U A94G G105A G139U	0.47
U73C C95U A141G	0.04
U73C A79G A142G	1.35
A79C U100C C113G	1.79
A79G C113A A121G	1.55
A77U U85A A94G U109C U119C	0
A77U U87C C90A U132A	0.02
G75A A79U U115C A121U A140G	1.74
G75U U104C U112C	0
A77G U96A G125U	0.06
A77G U85A U104C	0.13
A77G G93U A117U A142G	0.02
U73C A92U A136G	2.69
A79G C128G U130C	1.02
A77G G88A U104C	0.24

Variant	self-cleavage
A78G U81C A141G	1.28
A77U U81C C95U	0.24
G75C A79G U85A	0.06
U73C U91C C128A	0.25
A78G U108C G127A A129G	1.17
A79G A94U U100A A140G	0.16
A78G A92G U130C	0.29
U73G A107U U132A	2.11
A79G G127C A140G	2.55
A77U U132A U134A	0.41
U73C U85C U102C A140G A142G	1.31
A77G C90U A107G	0.1
A79G C98U A140G	0.46
G75C U85A U143C	0.1
A77G A129U A138U	1.31
U73C A121G A141U	2.3
G75C G82A U91C	0.11
U73C G89A U132C	0.05
A79G A121U U132C	1.84
A78G A79G A107G U115A	0.61
A78G U85A C103A	0.05
A78G A136U A138G	1.29
G74A U115C A117G	1.97
A77G U96A U143C	0.05

Variant	self-cleavage
U73C U81G G125A	1.85
G74A A107G A117G A136G	1.04
A77G A78G U100A	0.39
A79G G97C U108C A124U A140G	0.76
U73C G82U U85A	0.24
A79G A142G G144A	1.6
C76G U115C A117G	2.3
U73C U96A A117G	0.21
U73G U81A U130C	2.59
A77U G89A U132C	0.06
A78U U115C U119C U130C U132C A138G	0
A79G G114U U115C	1.11
U73C U119C U134G	1.53
G75A U91C U134C	0.96
A77U U91C A129G	0.39
A78G U102C U130C A138G A141G	0
G74A U102C U132C	1.2
A77U U81C C146U	1.31
U73C U96A A121G	0.14
A77G U100C A107U	2.76
A79G A107G A117G	0
U73C C99A A140G	0.84
A77C U109C U130A	1.16
A77G A94G U100A	0.18

Variant	self-cleavage
A77U A124U A136G	1.11
A78C G88A A124U	0.1
G74C G122A U132A	1.64
A78U U85C U119C G144A	0.18
A77U U119C A142G	1.72
U73C C84A A141G	0.07
U73C G74U U85A A124G	0.08
A77U U85C U134A A136G	0.18
A77G A121G A124G	0.26
A77U U87C U91C U112C	0
A79G G88A A124G A142G	0.06
C76U A79G U85C A117G	0.9
A77G G80A A107G A124G	2.25
U73G G93A A141G	0.01
A78G C101U U134A	1.93
A77U A94G A129G U132A	0.46
A79G C110U A117U	1.81
G75A U112C U132A	1.57
A77G U96A U115C	0.11
G75C U81C U132C	0
A79G U81A U104C	1.97
A77U U109C A117U U119C A129G A138G	0
A78C G122C U130A	2.23
G75A G114A A129G A142C	1.46

Variant	self-cleavage
A77G U85C A136G	0
C76U A77G U130A	2.98
G75U G89A A138U	0.01
A77G A136U A141U	1.98
U73C A94U U104C	0.98
U73G U104C U108A	1.31
A77C G127A A129G	1.13
U73C A79U U96A	0.07
A78U A94G A107C	0
A77U A94G A129G	0.37
U73C U91A U96C A141G	0
A77U A94U A140G	0.19
A77G A142G G144A	1.22
C76U U102C U119A	2.45
U73C U87C C145A	0
A77C C123U U132C A140G	1.04
G74A U108C A129U	1.04
G74A A107G U134C A142G	1.56
U73C A124G A138G	0.64
A78G A107G U109A	1.55
U73C G89A G114A	0.01
G74A A77U U104C U108C	1.64
C76U A94G U112G	0
A78C U100C U112C A138G	0.92

Variant	self-cleavage
U73C A79G U132A	1.34
U73C U85C U100C	0
A77U A94G U100A	0.11
A78G A129G U143C	1.91
A77U U85C A117G A142G	0.15
A77G G89A A107U A136G	0.09
U73C U96A C103A	0.06
A78G U102A A129U	1.45
A79C U81A A117U	2.53
A78G A117C C146U	1.92
A77U U104A U115C	0.75
A78G U81A U130C A138G	0.98
U73G A79G U85A	0.2
A77G U119G A136G	0.84
U73C U102C U104A A140G	1.84
C76U A78G A79G	2.2
A77G U87A A136G	0
U73C A79G A121U	0.4
A77G U115A U130A	1.84
A77U U130C U143A	1.8
U73C C128U A136G	2.16
A77G C101U A136G	2.99
A78G C95U U108C	0.46

Reference: the RNAGym collection of RNA variant scans (doi:10.7554/elife.90254)
